Consider 87 compounds from PMC4336329 (PLoS ONE, 2015).

Screen size: about 310,000 compounds; about 2,200 (0.71%) showed an effect of 50% or more. Effects have a minus sign here. The list shows a part of the results.

This assay deals with human ether-à-go-go-related gene (hERG) potassium channel (human, UniProt Q12809). Briefly: primary screen, population patch clamp on CHO cells stably expressing hERG.
Sequence of human ether-à-go-go-related gene (hERG) potassium channel (Q12809 whole entry, looked up): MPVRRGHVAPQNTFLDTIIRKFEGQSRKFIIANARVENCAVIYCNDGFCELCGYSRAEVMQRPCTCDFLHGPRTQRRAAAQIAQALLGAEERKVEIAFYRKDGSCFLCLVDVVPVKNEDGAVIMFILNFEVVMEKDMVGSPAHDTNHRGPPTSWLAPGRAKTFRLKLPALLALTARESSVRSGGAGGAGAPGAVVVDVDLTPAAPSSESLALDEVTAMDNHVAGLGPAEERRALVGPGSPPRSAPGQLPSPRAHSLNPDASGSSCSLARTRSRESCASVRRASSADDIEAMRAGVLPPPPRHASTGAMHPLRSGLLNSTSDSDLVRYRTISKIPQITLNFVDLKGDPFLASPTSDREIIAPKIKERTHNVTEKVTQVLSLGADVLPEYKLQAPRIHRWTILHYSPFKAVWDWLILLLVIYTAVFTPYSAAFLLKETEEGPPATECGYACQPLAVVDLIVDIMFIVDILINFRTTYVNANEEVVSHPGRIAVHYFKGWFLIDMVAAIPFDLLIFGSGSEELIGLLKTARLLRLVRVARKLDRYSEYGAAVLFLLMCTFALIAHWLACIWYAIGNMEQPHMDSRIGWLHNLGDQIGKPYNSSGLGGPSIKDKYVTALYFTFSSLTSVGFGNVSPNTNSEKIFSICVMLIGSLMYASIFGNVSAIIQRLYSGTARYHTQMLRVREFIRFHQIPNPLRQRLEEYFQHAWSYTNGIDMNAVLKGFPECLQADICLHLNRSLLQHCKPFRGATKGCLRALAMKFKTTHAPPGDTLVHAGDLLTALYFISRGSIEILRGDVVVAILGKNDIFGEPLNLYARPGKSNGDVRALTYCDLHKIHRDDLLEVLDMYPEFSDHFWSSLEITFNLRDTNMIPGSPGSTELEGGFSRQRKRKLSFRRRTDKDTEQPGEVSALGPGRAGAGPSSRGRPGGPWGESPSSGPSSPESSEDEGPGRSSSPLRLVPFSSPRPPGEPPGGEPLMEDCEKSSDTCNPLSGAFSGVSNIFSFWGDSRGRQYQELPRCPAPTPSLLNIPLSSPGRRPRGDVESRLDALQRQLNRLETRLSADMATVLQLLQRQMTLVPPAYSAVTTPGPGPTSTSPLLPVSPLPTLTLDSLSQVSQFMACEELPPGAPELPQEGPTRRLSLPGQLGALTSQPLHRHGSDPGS
Turning to `CC(NC(=O)c1ccc(F)cc1)c1nc2ccccc2n1Cc1ccccc1F` (stereo not drawn), the “hERG current change (%, negative = inhibition) at 1uM” value amounted to 15.8%. Under `O=C(CN1C(=O)NC2(CCCCC2)C1=O)N1CCN(S(=O)(=O)c2ccccc2)CC1` stands 14.7%; under `Cc1ccc(CN2CCC(CNC(=O)c3ccc(NC(=O)C4=CSCCO4)cc3)CC2)cc1`, 2.92%; under `O=C(O)C(=O)O.OC(CNCc1ccccc1)Cn1ccc2ccccc21` (stereo not drawn), 4.11%. Turning to `COc1ccc(NC(=O)CCCn2c(=O)c3sccc3n(Cc3ccccc3C)c2=O)cc1`, the “hERG current change (%, negative = inhibition) at 1uM” value was -2.98%.

`CC1(C)CC(=O)C(C=NCCN2CCN(C(=S)NC3CCCCC3)CC2)=C(O)C1`: the “hERG current change (%, negative = inhibition) at 1uM” value is -1.15%. As for `O=C(N/N=C/c1cccc(Cl)c1Cl)Nc1ccccc1`, the “hERG current change (%, negative = inhibition) at 1uM” value was 3.9%.

With `CC(C)Oc1ccc(S(=O)(=O)N2CCOCC2)cc1NC(=O)C(C)Oc1ccc(F)cc1` (stereo not drawn), the “hERG current change (%, negative = inhibition) at 1uM” value is given as 19.7%. The result for `CN(C)/C=C(\C=O)c1cccc(Cl)c1` reads 6.18%. Under `CCCC(=O)N1CCN(c2ccc(NC(=O)c3cccs3)cc2Cl)CC1` stands -22.1%; under `CCCc1oc(C(=O)O)cc1CN1CCCC1.Cl`, 3.77%. On to `CCn1cc(CNC(=O)c2cccc([N+](=O)[O-])c2)c(C)n1`, for which the “hERG current change (%, negative = inhibition) at 1uM” value is recorded as -7.6%. Under `Cc1ccc(CN2CCN(C(=O)CCN3C(=O)c4ccccc4C3=O)CC2)cc1` stands -4%; under `Cn1nc(C(=O)Nc2ccccc2)c2c1-c1ccccc1S(=O)(=O)C2`, 2.76%; under `CCOC(=O)C(C(=O)N1CCOCC1)C1CCCCC1` (stereo not drawn), 12.9%. Turning to `Fc1ccc(-[n+]2nc(Nc3ccccc3)sc2-c2c3ccccc3cc3ccccc23)cc1.[Cl-]`, the “hERG current change (%, negative = inhibition) at 1uM” value worked out at 15.6%.

Take `CC(NC(=O)Cc1ccc(NS(=O)(=O)c2cccc(C(F)(F)F)c2)cc1)c1ccccn1` (stereo not drawn): the “hERG current change (%, negative = inhibition) at 1uM” value was found to be 6.76%. In the case of `O=C(Nc1ccccc1)C1=C[C@H](c2coc3ccccc3c2=O)C[C@H](OCc2ccc(CO)cc2)O1`, the “hERG current change (%, negative = inhibition) at 1uM” value was determined as 12.4%.

Regarding `O=C(CSc1nc(-c2ccc(F)cc2)cs1)N1CCN(C(=O)c2ccco2)CC1`, the “hERG current change (%, negative = inhibition) at 1uM” value is reported as -43.2%. Under `COc1ccccc1CNC(=O)CN(C)S(=O)(=O)c1ccc2c(c1)n(C)c(=O)c(=O)n2C` stands 12.8%; under `CC(CN1CCOCC1)OC(=O)CCc1ccccc1` (stereo not drawn), 15.2%.

Consider `COc1cc(C)c(CN2CCN(c3ccccc3)CC2)cc1C`, for which the “hERG current change (%, negative = inhibition) at 1uM” value is -1.98%. Under `O=C(Nc1ccc2nc(-c3cccs3)c(-c3cccs3)nc2c1)NC1CC1` stands 4.21%; under `CC(C)c1ccc(CNc2nc3nc4c(c(=O)n3[nH]2)CCC4)cc1`, 10.8%; under `Cc1ccc(S(=O)(=O)Nc2ccc3[nH]ccc3c2)cc1`, 8.9%.

Consider `CC(=O)Nc1ccc(S(=O)(=O)NC(C(=O)O)C(C)C)cc1` (stereo not drawn), for which the “hERG current change (%, negative = inhibition) at 1uM” value is 2%. Under `O=C(Nc1c(C(=O)N2CCOCC2)cnn1-c1ccccc1)c1ccco1` stands 5.57%. `COc1ccc(Oc2cc(Cl)nc(N)n2)cc1`: the “hERG current change (%, negative = inhibition) at 1uM” value was 1.62%. Under `CC(OC(=O)c1cccc(O)c1)C(=O)N(C)Cc1ccccc1` (stereo not drawn) stands 13.6%. With `Cc1ccccc1-n1c(SCC(=O)N(C)C2CCS(=O)(=O)C2)nc2ccccc2c1=O` (stereo not drawn), the “hERG current change (%, negative = inhibition) at 1uM” value is given as 7.14%. Under `CN(Cc1nccn1C)C(=O)c1cc(COc2ccc3ncccc3c2)on1` stands 11.5%; under `CCCCOc1ccc(Cl)cc1CSc1nnc(C)n1N`, 0.126%.

Consider `CCCCc1ccc2[nH]cc(CCN)c2c1.Cl`, for which the “hERG current change (%, negative = inhibition) at 1uM” value turned out to be 5.08%. The result for `Fc1ccc(N2CCN(Cc3cnc(Oc4ccc(Br)cc4)s3)CC2)cc1` reads 18.1%. On to `Cc1cc(S(=O)(=O)N2CCC(NC(=O)C34CC5CC(CC(C5)C3)C4)CC2)ccc1-n1cnnn1`, for which the “hERG current change (%, negative = inhibition) at 1uM” value is -7.66%. Turning to `COc1ccc(OC)c(NC(=O)CCN2C(=O)c3ccccc3C2=O)c1`, the “hERG current change (%, negative = inhibition) at 1uM” value was 17.2%. Consider `CN(C)c1ccc(-c2n(C)c3ccccc3[n+]2C)cc1.[Cl-]`, for which the “hERG current change (%, negative = inhibition) at 1uM” value is 6.13%. Consider `CC(C)CCNC(=O)CCCCn1c(=O)[nH]c2ccsc2c1=O`, for which the “hERG current change (%, negative = inhibition) at 1uM” value is given as 13.6%. In the case of `O=S(=O)(/N=C(/Nc1ccccn1)c1ccccc1)c1ccccc1`, the “hERG current change (%, negative = inhibition) at 1uM” value was 11.2%. Under `COC(=O)C1=C(C)N(C)C(=S)NC1c1ccc(OC)cc1OC` (stereo not drawn) stands 4.08%; under `CC(Oc1cccc(Cl)c1)C(=O)N(C)CC(=O)Nc1ccc(N2CCOCC2)cc1` (stereo not drawn), 10.6%; under `Cc1ccc(Nc2nc3ccccc3n3nnnc23)cc1`, 12.1%. Under `COc1ccc(NC(=O)c2cccc(NS(=O)(=O)c3ccccc3)c2)cc1` stands 8.95%. Take `Nc1c(N2CCCC2)c2ccccc2oc1=O`: the “hERG current change (%, negative = inhibition) at 1uM” value is 6.58%. As for `O=C1NC2(CCCCCC2)Cc2ccccc21`, the “hERG current change (%, negative = inhibition) at 1uM” value is recorded as -0.636%. Consider `Cn1ncc(Br)c1C(=O)NC1C2CC3CC(C2)CC1C3` (stereo not drawn), for which the “hERG current change (%, negative = inhibition) at 1uM” value is given as 11.1%. The result for `CC(=O)c1ccc(NC(=O)CN2CCN(S(=O)(=O)c3ccc4ccccc4c3)CC2)cc1` reads 14.9%; that for `CSc1ccccc1NC(=S)Nc1ccccc1C(F)(F)F`, 6.68%. With `COc1ccc2oc(C(=O)OCC(=O)Nc3ccc(C(=O)N(C)C)cc3)c(C)c2c1`, the “hERG current change (%, negative = inhibition) at 1uM” value stood at 7.12%. Turning to `CCOc1ccc2nc(COC(=O)c3cccs3)c(C(=O)c3ccccc3)[n+]([O-])c2c1`, the “hERG current change (%, negative = inhibition) at 1uM” value was 9.01%. Under `CCN1C(=O)/C(=C\N2CCN(C)CC2)SC1=S` stands 14.2%; under `CC(C)C(=O)Nc1cccc(-c2cn3ccccc3n2)c1`, 9.5%. `O=C(c1ccc2c(c1)[nH]c(=S)n1c3ccccc3nc21)N1CCN(c2cccc(Cl)c2)CC1`: the “hERG current change (%, negative = inhibition) at 1uM” value was found to be 2.32%. Under `COc1cc(Br)cc(CN2CCN(C/C=C/c3ccccc3)CC2)c1O` stands -25.6%. The result for `CCOC(=O)C1CCN(C(=O)CSc2nccc(C)n2)CC1` reads -5.8%; that for `Cc1ccc(CSCCNC(=O)c2ccc(C)cc2)cc1`, 11.9%. Under `CCOc1cc(N2CCOCC2)c(OCC)cc1NC(=O)c1oc2ccccc2c1C` stands 11.9%. `CC(=O)c1ccc(NC(=O)CSc2nccn2CCc2ccccc2)cc1`: the “hERG current change (%, negative = inhibition) at 1uM” value was determined as 8.7%. For the compound `CC(C)(C)c1ccc(/C=C2\Oc3cc(O)ccc3C2=O)cc1`, the “hERG current change (%, negative = inhibition) at 1uM” value stood at 10.9%. Under `Cc1ccc(S(=O)(=O)Nc2ccccc2-c2ccccc2)cc1` stands 16.1%. The result for `COC(=O)C(Cc1c[nH]c2ccccc12)NC(=O)c1cncc(Br)c1` (stereo not drawn) reads 19.4%; that for `Cc1ccc(NC(=O)COc2ccc(/C=N/NC(=O)CSCc3ccccc3)cc2)cc1`, 1.25%; that for `COc1ccc(C(=O)Nc2nnc(S(=O)(=O)Cc3ccccc3)s2)cc1`, 14.4%. Regarding `O=C(NN1C(=O)C2C3c4ccccc4C(c4ccccc43)C2C1=O)C1CC1` (stereo not drawn), the “hERG current change (%, negative = inhibition) at 1uM” value was determined as 13.1%. Under `C=CCn1cnc2scc(-c3ccc(C)cc3)c2c1=O` stands 0.0053%.

For `COc1ccc(CNC(=O)CCc2nnc3ccc(N4CCC5(CC4)OCCO5)nn23)cc1`, the “hERG current change (%, negative = inhibition) at 1uM” value was 0.274%.

In the case of `N#Cc1ccc(OCC(=O)OCC(=O)Nc2sccc2C(N)=O)cc1`, the “hERG current change (%, negative = inhibition) at 1uM” value came to 0.865%. Consider `OC(COc1ccc(F)cc1)CN1CCN(CC(O)COc2ccc(F)cc2)CC1` (stereo not drawn), for which the “hERG current change (%, negative = inhibition) at 1uM” value is recorded as -51.1%. Under `CCOc1ccc(C(=O)CCC(=O)NNC(=O)c2ccncc2)cc1` stands 14%; under `CC(=O)c1cccc(NC(=O)C2CCN(S(C)(=O)=O)CC2)c1`, 10.7%; under `COc1cc(CN2CCN(Cc3ccco3)CC2)cc(OC)c1.O=C(O)C(=O)O`, 9.72%. `COc1ccccc1NC(=O)c1ccc(-n2cncn2)nc1`: the “hERG current change (%, negative = inhibition) at 1uM” value came out at 6.46%. As to `NS(=O)(=O)c1ccc(NC(=O)COC(=O)/C(=C/c2cccs2)c2cccs2)cc1`, the “hERG current change (%, negative = inhibition) at 1uM” value turned out to be 9.44%. Regarding `Cc1nn(C)c(C)c1NC(=O)CC12CC3CC(CC(C3)C1)C2`, the “hERG current change (%, negative = inhibition) at 1uM” value is on record as 6.62%. Under `COC(=O)C1C2C=CC3(CN(c4cccc(Cl)c4)C(=O)C13)O2` (stereo not drawn) stands 7.47%.

As for `CC(C)(C)NC(=O)CN(C(=O)c1snc(C(=O)NC2CCCCC2)c1N)c1ccccc1F`, the “hERG current change (%, negative = inhibition) at 1uM” value was 17.9%. For the compound `O=C(CN1CCOCC1)NCCc1ccccc1`, the “hERG current change (%, negative = inhibition) at 1uM” value stood at 14.7%. Take `CC(=O)c1ccc(OCC(=O)c2cc(C)n(-c3ccc4c(c3)OCO4)c2C)cc1`: the “hERG current change (%, negative = inhibition) at 1uM” value is on record as 6.25%.

For `CC(=O)c1cccc(S(=O)(=O)Nc2ccc(N3CCOCC3)cc2)c1`, the “hERG current change (%, negative = inhibition) at 1uM” value is 13.7%. Under `Cc1cc(S(=O)(=O)N2CCOCC2)ccc1OCC(=O)N1CCOCC1` stands 15.2%. Consider `C/C(=N\Nc1cc(N2CCOCC2)ncn1)c1ccc(O)cc1`, for which the “hERG current change (%, negative = inhibition) at 1uM” value is on record as 11.4%. Regarding `O=C(NCc1ccccc1)C1CCCN(S(=O)(=O)c2cccs2)C1` (stereo not drawn), the “hERG current change (%, negative = inhibition) at 1uM” value came out at 6.69%. `O=C1N/C(=C/c2ccco2)C(=O)N1Cc1ccccc1F`: the “hERG current change (%, negative = inhibition) at 1uM” value is 7.02%. The result for `Cc1cc(C)nc(NS(=O)(=O)c2ccc(NC(=O)CSc3nc(-c4ccccc4)c(C#N)c(=O)[nH]3)cc2)n1` reads 16.8%; that for `COc1ccccc1N1CCN(C(=O)c2cn(Cc3ccccc3)nc2-c2cccnc2)CC1`, 9.19%. As to `CCOC(=O)N1CCC(NC(=O)C2CCN(C(=O)N3CC(C)Oc4ccccc43)CC2)CC1` (stereo not drawn), the “hERG current change (%, negative = inhibition) at 1uM” value stood at 1.5%. In the case of `COc1ccc(Cn2c(-c3ccccc3)nc3c(c(=O)c4ccccc4n3C)c2=O)cc1`, the “hERG current change (%, negative = inhibition) at 1uM” value is given as -7.94%.
